Results as given in PMC3511376, “Glycosaminoglycans Are Interactants of Langerin: Comparison with gp120 Highlights an Unexpected Calcium-Independent Binding Mode” (PLoS ONE, 2012).

Biological target: T1, HIV-1 envelope glycoprotein gp120 (YU2) (HIV-1 (YU2))
T1 construct: Surface glycoprotein gp120 of the HIV-1 envelope polyprotein, strain YU2; glycosylated (mannose-rich)
Test: SPR; BIAcore 3000, CM4 chip; gp120YU2 amine-coupled (514 RU for the Lg-CRD chip, 838 RU for the Lg-ECD chip), BSA control flow cell; Langerin injected at 20 µl/min; running buffer 150 mM NaCl, 25 mM Tris pH 7.8, 4 mM CaCl2, 0.005% P20; regeneration with 50 mM EDTA; 1:1 Langmuir fit for Lg-CRD, EC50 from titration for Lg-ECD
Details: both partners purified

B1: Langerin extracellular domain (ECD) (domain or fragment)
chain: not shown
notes: Langerin, human; entire extracellular domain (neck domain and C-terminal CRD), trimeric; also called Langerin ECD; Lg ECD
EC50: ~282 nM
